Test results: PubChem BioAssay AID504332 (National Center for Advancing Translational Sciences (NCATS), 2011)
“And” between values parts separate entries of the source, which are not always exact repeats. Equal entries are not always repeated. Out of some 350,000 compounds screened, about 31,000 (8.9%) were called active. Inconclusive means that the source gave no clear call. Such entries were picked first, then a sample of the others. Calls come from the whole dose curve; as a rule, active = well fitted inhibition curve with a large enough effect; inconclusive = small, poorly fitted or top-dose-only effect; inactive = no such curve, though single readings can be large or run the other way. Potencies beside an inconclusive call are fits to weak or partial responses and may not hold up. Some structures have more than one record in an assay (separate samples or runs), and their calls can disagree.

The compounds below were run against Histone-lysine N-methyltransferase EHMT2 (Homo sapiens) (UniProt Q96KQ7) (assay: qHTS Assay for Inhibitors of Histone Lysine Methyltransferase G9a). Settings: G9a H3K9 monomethylation, AlphaScreen, 2 h; activity, negative = inhibition: at 59 µM (top of the series) unless noted.
Summary of the method: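 G9a (20 nM) was preincubated 15 min with compound, then reacted 2 h at room temperature with 500 nM biotin-H3K9 peptide and 20 µM SAM. Monomethyl-H3K9 detected by AlphaScreen using anti-H3K9me1 antibody.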
% is set by controls: 0 for no effect and ±100 for the full control effect; potency is the fitted concentration of half-maximal effect; tags give direction and shape of the fitted curve.
Note: nearly all actives have a fitted effect of over 75% in size.

Sequence of UniProt Q96KQ7 (Q96KQ7 whole entry, looked up): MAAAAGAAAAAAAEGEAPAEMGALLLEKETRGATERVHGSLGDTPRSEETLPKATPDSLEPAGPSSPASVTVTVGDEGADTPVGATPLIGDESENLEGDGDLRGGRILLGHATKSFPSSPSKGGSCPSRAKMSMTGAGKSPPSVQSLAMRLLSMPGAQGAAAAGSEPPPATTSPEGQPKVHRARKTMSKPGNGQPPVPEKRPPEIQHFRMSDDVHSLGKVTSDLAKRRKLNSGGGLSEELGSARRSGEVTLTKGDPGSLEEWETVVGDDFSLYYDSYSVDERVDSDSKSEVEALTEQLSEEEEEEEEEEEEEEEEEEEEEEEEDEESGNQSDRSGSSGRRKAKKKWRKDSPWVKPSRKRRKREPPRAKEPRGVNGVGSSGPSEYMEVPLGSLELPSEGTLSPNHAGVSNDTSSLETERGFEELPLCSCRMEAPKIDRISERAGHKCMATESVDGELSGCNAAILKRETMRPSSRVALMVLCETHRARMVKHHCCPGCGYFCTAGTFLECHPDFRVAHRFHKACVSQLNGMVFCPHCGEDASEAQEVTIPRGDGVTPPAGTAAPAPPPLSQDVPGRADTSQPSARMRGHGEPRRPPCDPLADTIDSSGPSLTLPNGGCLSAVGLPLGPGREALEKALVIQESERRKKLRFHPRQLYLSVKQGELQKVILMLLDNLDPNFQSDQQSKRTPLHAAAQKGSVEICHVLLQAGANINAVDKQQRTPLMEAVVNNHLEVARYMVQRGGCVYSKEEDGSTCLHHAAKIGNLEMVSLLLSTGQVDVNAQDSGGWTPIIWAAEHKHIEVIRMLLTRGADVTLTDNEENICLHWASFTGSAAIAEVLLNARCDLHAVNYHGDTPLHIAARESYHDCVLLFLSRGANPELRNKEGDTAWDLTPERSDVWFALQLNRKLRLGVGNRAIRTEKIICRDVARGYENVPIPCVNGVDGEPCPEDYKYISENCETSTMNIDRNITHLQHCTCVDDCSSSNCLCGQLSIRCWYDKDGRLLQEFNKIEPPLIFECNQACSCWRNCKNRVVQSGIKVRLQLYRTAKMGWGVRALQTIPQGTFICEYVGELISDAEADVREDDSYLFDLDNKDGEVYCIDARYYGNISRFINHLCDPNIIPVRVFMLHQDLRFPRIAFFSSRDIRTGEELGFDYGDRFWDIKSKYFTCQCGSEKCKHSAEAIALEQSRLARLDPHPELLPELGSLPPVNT

Q: For `CC1CCCCN1Cc1nc2ccccc2c(=O)[nH]1` (stereo not given), which activity, negative = inhibition is on record?
A: inactive: 5.19% [at 12.7 µM]

Q: Which Potency does the source give for `COc1ccc(OC)c(NC(=O)CC2SC(=NCc3ccccc3)NC2=O)c1` (stereo not given) here?
A: inconclusive: 56.2 µM [inhibitor, partial curve, poor fit]

Q: `O=C(Cn1c(S(=O)(=O)Cc2ccccc2)nc2ccccc21)N1CCCCC1` was tested. Which Potency did it give?
A: inconclusive: 39.8 µM [inhibitor, partial curve, poor fit]

Q: Which Potency does the source give for `COc1ccc(N2CC(C(=O)Nc3ccc(F)cc3F)CC2=O)cc1` (stereo not given) here?
A: inconclusive: 44.7 µM [inhibitor, partial curve, poor fit]

Q: For `O=C(Cn1ccc(=O)[nH]c1=O)NCCO`, which “activity, negative = inhibition” value is on record?
A: inactive: 9.95% [at 102 µM]

Q: With `S=C1NCCc2ccccc2C1c1ccccc1Cl` (stereo not given) as the compound, how does the “activity, negative = inhibition” value read?
A: inactive: 5.34%

Q: `CSc1ccccc1C(=O)Nc1nccs1` was tested. Which Potency did it give?
A: inconclusive: 2.51 µM [inhibitor, full curve, poor fit]

Q: For `COC(=O)c1cc(=O)n(Cc2ccco2)c(=Nc2ccc(F)c(Cl)c2)s1`, which Potency is on record?
A: active: 35.5 µM

Q: Which Potency does the source give for `CSc1ccccc1OCc1cc(C(=O)N(C)Cc2ccc(C)o2)no1` here?
A: active: 50.1 µM

Q: For `COC(=O)c1c(NC(=S)Nc2ccc(F)cc2[N+](=O)[O-])sc2c1CCCCC2`, which Potency is on record?
A: active: 35.5 µM

Q: For `C1CC(CN2CCOCC2)CN(Cc2nc(CC3CC3)no2)C1` (stereo not given), which Potency is on record?
A: inconclusive: 89.1 µM [inhibitor, partial curve, poor fit]

Q: How did the Potency turn out when `CCOC(=O)N1CCc2c(sc3nc(SC(C)C)n(N)c(=O)c23)C1` was run?
A: inconclusive: 89.1 µM [inhibitor, single point]

Q: For `CCCC(=O)Nc1ccc(N2CCN(C(=O)c3ccccc3C)CC2)cc1`, which Potency is on record?
A: inconclusive: 8.91 µM [inhibitor, full curve]

Q: With `COc1ccc(N(CC(=O)NC2CCCC2)C(=O)Cn2nnc(-c3ccc(F)cc3)n2)cc1` as the compound, how does the “activity, negative = inhibition” value read?
A: inactive: -4.11% [at 102 µM]

Q: For `CC(C)c1ccc(NC(=O)CCNS(=O)(=O)c2cccc3nonc23)cc1`, which “activity, negative = inhibition” value is on record?
A: inactive: -10.6%

Q: For `S=c1nc(-c2ccc(Cl)cc2)[nH][nH]1`, which Potency is on record?
A: active: 0.562 µM

Q: How did the “activity, negative = inhibition” value turn out when `Cc1cc(C)n(CCCNC(=O)C2CC(=O)N(Cc3ccccc3)C2)n1` (stereo not given) was run?
A: inactive: -24.3% [at 102 µM]

Q: `Cc1cc(C)nc(SCNC(=O)c2ccc(Cl)cc2)n1` was tested. Which Potency did it give?
A: active: 50.1 µM

Q: Which Potency does the source give for `CCOc1ccc(NC(=O)c2ccco2)cc1S(=O)(=O)N1CCCC1` here?
A: inconclusive: 3.55 µM [inhibitor, single point]

Q: How did the Potency turn out when `CCn1c(SC(C)C)nnc1-c1c[nH]c2ccccc12` was run?
A: inconclusive: 89.1 µM [inhibitor, single point]

Q: How did the “activity, negative = inhibition” value turn out when `Cc1ccc(C(=O)Oc2cc(N)n(S(=O)(=O)c3ccc(F)cc3)n2)cc1` was run?
A: inactive: 12.9% [at 102 µM]

Q: `CCOC(=O)c1ccc2ncc(C(=O)OCC)c(NCc3ccco3)c2c1` was tested. Which Potency did it give?
A: inconclusive: 31.6 µM [inhibitor, single point]

Q: For `O=C(CSc1nc(-c2ccccc2)cs1)Nc1cccc([N+](=O)[O-])c1`, which Potency is on record?
A: inconclusive: 39.8 µM [inhibitor, single point]

Q: With `Cc1ccc(C(=O)Nc2ccc(S(=O)(=O)O)c3cc(S(=O)(=O)O)cc(S(=O)(=O)O)c23)cc1NC(=O)c1cccc(NC(=O)Nc2cccc(C(=O)Nc3cc(C(=O)Nc4ccc(S(=O)(=O)O)c5cc(S(=O)(=O)O)cc(S(=O)(=O)O)c45)ccc3C)c2)c1` as the compound, how does the Potency read?
A: active: 1.26 µM and active: 1.41 µM and active: 282 nM

Q: Which Potency does the source give for `Cc1ccccc1OC(=O)CSc1nnc(-c2ccc3c(c2)OCO3)o1` here?
A: inconclusive: 28.2 µM [inhibitor, partial curve, poor fit]

Q: `Cc1ccc(Cl)cc1N1CCN(C(=O)C2CCN(S(=O)(=O)c3cccc4nonc34)CC2)CC1` was tested. Which Potency did it give?
A: inconclusive: 17.8 µM [inhibitor, partial curve, poor fit]

Q: Which Potency does the source give for `CC(=O)c1c(C)oc2c(Br)cc(NS(=O)(=O)c3ccc(Br)cc3)cc12` here?
A: inconclusive: 3.98 µM [inhibitor, partial curve, poor fit]

Q: How did the “activity, negative = inhibition” value turn out when `O=C(c1noc2c1CCCCC2)N1CCN(c2cccc(C(F)(F)F)c2)CC1` was run?
A: inactive: -1.96%

Q: With `Cc1ccc(S(=O)(=O)N2CCOCC2)cc1NC(=O)c1cc([N+](=O)[O-])ccc1N1CCOCC1` as the compound, how does the Potency read?
A: active: 56.2 µM

Q: For `CCOc1ccc(N(CC)S(=O)(=O)N2CCCC(C(=O)Nc3cc(Cl)ccc3C)C2)cc1` (stereo not given), which “activity, negative = inhibition” value is on record?
A: inactive: 6.75%

Q: With `CCn1c(SCC(=O)Nc2cccc(F)c2)nnc1-c1cc2cc(Br)ccc2o1` as the compound, how does the Potency read?
A: inconclusive: 2.51 µM [inhibitor, partial curve, poor fit]

Q: `CCCNC(=O)c1nc(C)n(-c2ccc([N+](=O)[O-])cc2)n1` was tested. Which “activity, negative = inhibition” value did it give?
A: inactive: -1.68% [at 102 µM]

Q: Which Potency does the source give for `Cc1onc(-c2ccccc2Cl)c1C(=O)Nc1nnc(C(C)C)s1` here?
A: active: 50.1 µM

Q: With `O=C(O)/C=C/c1ccc(OCCCF)cc1` as the compound, how does the “activity, negative = inhibition” value read?
A: inactive: 0.243% [at 102 µM]

Q: Which Potency does the source give for `CCOC(=O)c1[nH]c2cc(OC)c(OC)cc2c1NC(=O)CN(C)C1CCCCC1` here?
A: inconclusive: 79.4 µM [inhibitor, single point]

Q: `CCSc1ccccc1C(=O)Nc1nncs1` was tested. Which Potency did it give?
A: inconclusive: 39.8 µM [inhibitor, partial curve, poor fit]

Q: `NC(=O)CN(c1ccccc1)C1SC(=O)N(Cc2ccccc2)C1=O` (stereo not given) was tested. Which Potency did it give?
A: inconclusive: 0.631 µM [inhibitor, partial curve, poor fit]

Q: For `CCOc1ccc(-c2cc3c(=O)n(Cc4nc(-c5ccc(OC(C)C)cc5)oc4C)ccn3n2)cc1Cl`, which “activity, negative = inhibition” value is on record?
A: inactive: -34.5%

Q: Which Potency does the source give for `COc1ccc(Cl)cc1N1Cc2ccccc2C1` here?
A: inconclusive: 2.24 µM [inhibitor, partial curve, poor fit]

Q: For `CC1=NN(c2ccc(C)c(C)c2)C(=O)C1C(c1cccc(O)c1)C1C(=O)N(c2ccc(C)c(C)c2)N=C1C` (stereo not given), which Potency is on record?
A: inconclusive: 89.1 µM [inhibitor, single point]

Q: How did the Potency turn out when `COc1ccc(C2=C(SC)CC2=NC(C)(C)C)cc1` was run?
A: inconclusive: 10 µM [inhibitor, partial curve, poor fit]

Q: For `O=[N+]([O-])c1cccnc1N1CCN(Cc2ccc3c(c2)OCO3)CC1`, which Potency is on record?
A: inconclusive: 17.8 µM [inhibitor, single point]

Q: `O=c1cnc2cc([N+](=O)[O-])ccc2[nH]1` was tested. Which Potency did it give?
A: inconclusive: 0.224 µM [inhibitor, partial curve, poor fit]

Q: For `CNS(=O)(=O)c1ccc(N2CCCC2=O)c([N+](=O)[O-])c1`, which Potency is on record?
A: inconclusive: 1.78 µM [inhibitor, partial curve, poor fit]

Q: How did the activity, negative = inhibition turn out when `O=C(C1=C[C@H](c2ccc(C(F)(F)F)cc2)C[C@H](OCc2ccc(CO)cc2)O1)N1CCCCCCC1` was run?
A: inconclusive: -62.8% [inhibitor]

Q: With `O=C(CCCn1c(=O)c2ccccc2n(CC(=O)Nc2cccc(C(F)(F)F)c2)c1=O)NCc1ccc2c(c1)OCO2` as the compound, how does the “activity, negative = inhibition” value read?
A: inactive: -36.2%

Q: For `COc1ccc(C(=O)NC(Cn2ccnc2)C(C)(C)C)cc1OC1CCN(C(C)C)CC1` (stereo not given), which Potency is on record?
A: inconclusive: 22.4 µM [inhibitor, partial curve, poor fit]

Q: Which “activity, negative = inhibition” value does the source give for `CCCN(CCC)S(=O)(=O)c1ccc2c(c1)N(CC(=O)NCc1ccc(F)cc1Cl)C(=O)CS2` here?
A: inactive: -13.5%

Q: With `CCOP(=O)(OCC)C(Nc1ccc([N+](=O)[O-])cc1)c1ccc(Cl)cc1` (stereo not given) as the compound, how does the Potency read?
A: inconclusive: 50.1 µM [inhibitor, partial curve, poor fit]

Q: Which Potency does the source give for `O=C(OCC1CCCN2CCCCC12)c1ccc2c(c1)OCO2` (stereo not given) here?
A: inconclusive: 79.4 µM [inhibitor, partial curve, poor fit]

Q: For `COc1ccc(-c2cnn3c4c(c(C)nc23)CCN4C(C)C)cc1OC`, which activity, negative = inhibition is on record?
A: inconclusive: -109% [inhibitor] [at 12.7 µM]

Q: Which Potency does the source give for `CCC1CCCCN1C(=O)CSc1nnc(-c2cccc(Cl)c2)o1` (stereo not given) here?
A: inconclusive: 0.794 µM [inhibitor, full curve, poor fit]

Q: Which “activity, negative = inhibition” value does the source give for `Cc1ccc(S(=O)(=O)c2nnn3c2nc(NC(C)c2ccccc2)c2sccc23)cc1` (stereo not given) here?
A: inactive: 3.42%

Q: With `COc1ccc(N2C(=O)CC(N(Cc3ccc(S(N)(=O)=O)cc3)C(C)=O)C2=O)cc1` (stereo not given) as the compound, how does the Potency read?
A: inconclusive: 25.1 µM [inhibitor, partial curve, poor fit]

Q: `CC1(C)OC(=O)C(=CNc2cccc(C(=O)O)c2)C(=O)O1` was tested. Which Potency did it give?
A: inconclusive: 5.01 µM [inhibitor, partial curve, poor fit]

Q: How did the activity, negative = inhibition turn out when `Cc1noc(C)c1-c1cc(N2CCN(C)CC2)ncn1` was run?
A: inactive: 1.43% [at 0.501 µM]

Q: With `C=CCn1c(SCC(=O)c2ccc(O)c(O)c2)nnc1-c1ccccc1OC` as the compound, how does the Potency read?
A: active: 5.01 µM

Q: With `CCOC(=O)N1CCN(Cc2nc(N)nc(Nc3ccc(C)cc3C)n2)CC1` as the compound, how does the “activity, negative = inhibition” value read?
A: inactive: -1.37% [at 102 µM]

Q: With `Cc1ccc(Cl)cc1NC(=O)Nc1nnc(N2CCCC(C)C2)s1` (stereo not given) as the compound, how does the “activity, negative = inhibition” value read?
A: inactive: -4.4%

Q: For `O=C1CC(c2ccco2)=Nc2ccccc2N1`, which Potency is on record?
A: inconclusive: 35.5 µM [inhibitor, single point]

Q: Which activity, negative = inhibition does the source give for `Clc1ccc(CN2CCCCCCC2)cc1Cl` here?
A: inconclusive: -122% [inhibitor]

Q: How did the activity, negative = inhibition turn out when `O=C(c1csnn1)N1CCC2(CC1)CCN(c1cccc(-c3ccccc3)c1)CC2` was run?
A: inactive: -2.76% [at 12.7 µM]

Q: How did the activity, negative = inhibition turn out when `CCN(CC)S(=O)(=O)c1ccc2c(c1)nc(CN(C)C(=O)Nc1ccc(Cl)cc1)n2C` was run?
A: inactive: 1.45% [at 12.7 µM]

Q: `CCC(=O)Nc1nc(C)c(-c2csc(Nc3cccc(C(=O)O)c3)n2)s1` was tested. Which Potency did it give?
A: active: 44.7 µM

Q: Which Potency does the source give for `C/C=C/c1ccc(OCCOCCNCc2ccccc2)c(OC)c1` here?
A: active: 7.94 µM

Q: `O=[N+]([O-])c1ccccc1/C=N/n1c(-c2cccnc2)n[nH]c1=S` was tested. Which Potency did it give?
A: active: 2.51 µM

Q: With `COc1cc2nc(N3CCN(C(=O)OCc4ccccc4)C(C(=O)NC(C)(C)C)C3)nc(N)c2cc1OC` (stereo not given) as the compound, how does the Potency read?
A: active: 5.62 µM

Q: And the activity, negative = inhibition?
A: inactive: -11.3% [at 12.7 µM]

Q: How did the Potency turn out when `O=C(/C=C/c1ccc(Br)o1)NCCCN1CCOCC1` was run?
A: active: 22.4 µM

Q: `COc1ccc(C(=O)Nc2ccc(N3CCN(C)CC3)cc2)cc1[N+](=O)[O-]` was tested. Which Potency did it give?
A: inconclusive: 50.1 µM [inhibitor, partial curve, poor fit]
